Experimental data from US20070066800A1, “Apo2l(trail) receptor binding peptides and uses thereof” (priority 2003, published 2007).

Columns and labels:
[1] = biological target: T1, human DR5-ECD (SEQ ID NO: 105) (Homo sapiens, UniProt O14763, A67V/E190F/V191A); assay: ELISA: inhibition of binding of Apo-2L to Apo-2L receptor human DR5-ECD; details: LB881 fused to GCN4 leucine zipper, linker GGSGGM; read-out: Ic 50 Elisa
T1 construct: Human DR5-ECD long form polypeptide

[2] = tested on: SK-MES-1 human lung carcinoma cells; assay: Alamar blue bioassay of apoptosis induction; format: cell-based; details: SK-MES-1 cells, 24 hours, alamarBlue; values in nM; read-out: Ec 50 bio-assay
Description: Alamar Blue Assay of Ability of Apo-2 Receptor binding Peptides to Agonistically Induce Apoptosis
Briefly, serial 2-fold dilutions of Apo-2L.0 or this Apo2L receptor binding peptide were made in RPMI-1640 media (Gibco) containing 0.1% BSA, and 50 μL of each dilution was transferred to individual wells of 96-well Falcon tissue culture microplates. The terms “Apo-2L.0” and “Apo2L.0” refer to a form of Apo-2 ligand polypeptide consisting of amino acids 114 to 281 of FIG. 1 (amino acids 114 to 281 of SEQ ID NO: 1) and not linked or conjugated to any epitope tag sequences. After the Apo-2L.0 or Apo2L receptor binding peptide dilution step, 50 μL of SK-MES-1 human lung carcinoma cells (ATCC HTB58) (in RMPI-1640, 0.1% BSA) were added at a density of 2×10^4 cells/well. These mixtures were incubated at 37° C. for 24 hours. At 21 hours, 25 μL of alamarBlue (AccuMed, Inc., Westlake, Ohio) was added. Fluorescence was read using 96-well fluorometer with excitation at 530 nm and emission of 590 nm. The results are expressed in relative fluorescence units (RFU). For data analysis the 4-parameter curve fitting program (Kaleidagraph) was used.
“Ec 50” refers to the median effective concentration of peptide observed to induce apoptosis in 50% of the cell population.

T1 sequence (O14763 with tags, fused parts or gaps A67V/E190F/V191A): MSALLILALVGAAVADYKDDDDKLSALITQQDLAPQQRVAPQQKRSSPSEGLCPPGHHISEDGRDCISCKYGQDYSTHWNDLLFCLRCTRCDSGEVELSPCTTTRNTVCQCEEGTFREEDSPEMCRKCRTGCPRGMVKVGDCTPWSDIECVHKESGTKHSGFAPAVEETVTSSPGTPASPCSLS

GEVCLTSCSRLRGGSGGM KLKQIEDKLEEILSKLYHIENELARIKKLVGER (GEVCLTSCSRLRGGSGGMKLKQIEDKLEEILSKLYHIENELARIKKLVGER) [LB881-Tetramer]
IC50 [1]: 7 nM | EC50 [2]: 166 nM
